± gives the standard deviation of the averaged measurements. This is one part of the list.

This assay deals with PfAP2-G AP2 domain (GST-tagged). The experiment in a line: gcPBM binding intensity (ln(normalized median fluorescence intensity)); higher = stronger DNA binding. An outline of the steps: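 Binding of GST-tagged P. falciparum DNA-binding domains, expressed in E. coli and used at about 25 μg on average, was carried out for 1 h in 1× PBS containing 1% milk, 0.2 mg/ml BSA, 0.5% salmon testes DNA and 0.03% Triton X-100. The target was an Agilent 4 × 180k array of primer-extended double-stranded 36-bp intergenic genomic probes plus negative controls, read with Alexa488 anti-GST antibody at 488 nm. Binding intensity is the highest Masliner-normalised natural-log median intensity across replicate spots of either probe orientation.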
“AAATTAAATAAATTTACACACTAAAAATTACATATA [CACACA_site1054]”: the “gcPBM binding intensity (ln)” value was 9.93 ± 0.16.
The result for “TTTATTATTATATTATTTTAATTTTTCTTTAGTACA [GTGCAC_negctrl_site392]” reads 10.29 ± 0.099; that for “CATTTCATTTCTTAATGTACTTTATTCCACCACATA [XGTACX_site5943]”, 11.3 ± 0.86; that for “ATTTTTTTTAATTTGTACAAATTTTGTTCACAATTT [CACACA_negctrl_site1301]”, 10.8 ± 0.4.
Then “TACCATGTTCAAATTACACACATATAATCTAATATA [CACACA_site2008]”, with 9.805 ± 0.021; and “TAATATCTACATATATGTACATATATATATATATAT [XGTACX_site7979]”, with 11.1 ± 0.65.
The result for “AAAGGGACATATATATCACACACAAAAATTAGTCCC [CACACA_site8897]” reads 10.4 ± 0.41; that for “TTATATATGTATTAATGTACATAGTTGAGAAAGGTA [XGTACX_site1511]”, 11 ± 0.67.
On to “ATGGGACAGATATATACACACATATAAATATAAATA [CACACA_site6684]”, for which the “gcPBM binding intensity (ln)” value turned out to be 10.3 ± 0.35.
“GGAAGCTAATTACACACATGCATATTTTTTTTTCAA [TGCATGCA_site548]”: the “gcPBM binding intensity (ln)” value is 9.94 ± 0.014.
The result for “ATAATATAGAACAATACATGCAAATGGCTTAAATTT [TGCATGCA_site521]” reads 9.8 ± 0.22; that for ATATTTTATATAATAGTGCAAATAATATTAAATAAT, 9.94 ± 0.099; that for “ATTATAATATTTAATTGTACTTGTATTTATTCCAAA [XGTACX_site6417]”, 11.3 ± 0.94.
As to “TAATAAAAAGTTGAGGTGCATATAGAGTTCTTCTTT [GTGCAC_site9508]”, the “gcPBM binding intensity (ln)” value was found to be 10.01 ± 0.085.
Then “TGCCCTTTGGTTATAACACACATGCACCCGTAAATA [CACACA_site3842]”, with 10.6 ± 0.63; and “ATATATATATAATAATGTACTTATAATAGATGTGTA [XGTACX_site4677]”, with 11.2 ± 0.79.
The result for “CACATAAAATAAGGTGCATGCAAACGAGAAAATAAA [TGCATGCA_site75]” reads 10.32 ± 0.014; that for “AATAAATATATTAAAAGTACACAAATATTATTTAAT [XGTACX_site2482]”, 11.4 ± 0.76; that for “AAGATTAAACATTGCACACAAAAACATATTTTCTAT [CACACA_site530]”, 9.78 ± 0.26.
The result for “AAAAAAAATATATTACAAAACTTAGGATCCTAATAT [CACACA_negctrl_site470]” reads 9.79 ± 0.18.
On to “AATATATAAGCTGTTCTATTCAAGAATTATATCTTA [CACACA_negctrl_site270]”, for which the “gcPBM binding intensity (ln)” value is 9.57 ± 0.11.
For the sequence “CAAAGGAAACCTATCTGTACACATATTGGGGGAAAA [XGTACX_site3502]”, the “gcPBM binding intensity (ln)” value amounted to 11.6 ± 1.
Then “AGAAGATTAAACATTGCACACAAAAACATATTTTCT [CACACA_site8072]”, with 9.98 ± 0.014.
The result for “TATATATTGCCCTTCACACACACACCGATATATATA [CACACA_site5390]” reads 10.3 ± 0.22; that for “CGTAAACGATATAAATGTACGAATATCTATATATTA [XGTACX_site8116]”, 10.6 ± 0.3; that for “ATAATAAGGTTAAGCACACATATTACATATATAACT [CACACA_site3356]”, 10.1 ± 0.19.
Take “TATTTCATCTTTTAAGAAGGTACCCATATGTCATAT [GTGCAC_negctrl_site403]”: the “gcPBM binding intensity (ln)” value is 11.1 ± 0.72.
As to “AAAAATATAACCGTTACACACAAAATAATATGAGAA [CACACA_site3773]”, the “gcPBM binding intensity (ln)” value came to 9.935 ± 0.035.
On to TCGTTTCATAATATTGTGCACATATATATTTACAAT, for which the “gcPBM binding intensity (ln)” value stood at 10.7 ± 0.37.
Then “GAACGATATATTATATGTACATATATATATATATAT [XGTACX_site394]”, with 11.2 ± 0.69; and “TAATCGTTTTATAAATGTACAAAATTGTTATGTTAT [XGTACX_site5147]”, with 10.6 ± 0.35; and GGGGGAAGGTTGAAGGTGCTTGATGGAGAAAAATAT, with 10.9 ± 0.6.
Then “TTAATACATACATTCACACACACTAAATGTATATTT [CACACA_site4105]”, with 10.02 ± 0.057; and “TATGGAACACACCTTAATATGTGATAAAATATGATA [GTGCAC_negctrl_site718]”, with 10 ± 0.2.
Then “GTTATTAAATAATTCACACACATATATATATATATA [CACACA_site2260]”, with 10.2 ± 0.38; and “TATTCCTATATACAGCGTACAAAAAATAATATGTAT [XGTACX_site8112]”, with 11.2 ± 0.86.
Turning to “AAATATTATGTACGCACACACATTTTTGATATATAA [CACACA_site7755]”, the “gcPBM binding intensity (ln)” value stood at 11.5 ± 0.88.
Regarding “CGCAACGTGAAAATACGTACACATACATTTTTATAT [XGTACX_site330]”, the “gcPBM binding intensity (ln)” value came to 11.7 ± 0.85.
The result for “AAACAAGTAATTGTTATTATTATTATATTATTATTA [CACACA_negctrl_site402]” reads 9.45 ± 0.11; that for “ATAAATTCTATGTATACACACATATATAATATATAT [CACACA_site2689]”, 10.2 ± 0.11; that for “AATAGGATATGGTACATTTTTTGTATACTTTTTGTT [CACACA_negctrl_site1804]”, 10.7 ± 0.32.
Consider “AATGAATATTAAAGGAGTACACATAATAAGTAAGAA [XGTACX_site7354]”, for which the “gcPBM binding intensity (ln)” value came to 11.7 ± 0.99.
For the sequence “TATATAAAAATATACACACACAAATGTATTTATATA [CACACA_site4284]”, the “gcPBM binding intensity (ln)” value was determined as 9.765 ± 0.021.
Then “GAAAAAAAAAAAAATACACACAAATTGGTATAGAAT [CACACA_site380]”, with 9.86 ± 0.11.

The values above are taken from the supplement of paper PMC11417369.
